# According to a collection of fitness landscapes (doi:10.1126/science.1257360):
# The list shows a part of the results.
# B1: PhoQ; a variant is named by its letters at X, in order, P23837 (parent)
# chain: MKKLLRLFFPLSLRVRFLLATAAVVLVLSLAYGMVALIGYSVSFDKTTFRLLRGESNLFYTLAKWENNKLHVELPENIDKQSPTMTLIYDENGQLLWAQRDVPWLMKMIQPDWLKSNGFHEIEADVNDTSLLLSGDHSIQQQLQEVREDDDDAEMTHSVAVNVYPATSRMPKLTIVVVDTIPVELKSSYMVWSWFIYVLSANLLLVIPLLWVAAWWSLRPIEALAKEVRELEEHNRELLNPATTRELTSLVRNLNRLLKSERERYDKYRTTLTDLTHSLKTPLXXLQXXLRSLRSEKMSVSDAEPVMLEQISRISQQIGYYLHRASMRGGTLLSRELHPVAPLLDNLTSALNKVYQRKGVNISLDISPEISFVGEQNDFVEVMGNVLDNACKYCLEFVEISARQTDEHLYIVVEDDGPGIPLSKREVIFDRGQRVDTLRPGQGVGLAVAREITEQYEGKIVAGESMLGGARMEVIFGRQHSAPKDE
# Variants of: B1
# Assay: enrichment ratio after two sorts for PhoP signalling (ratio (wild type AVST 3.29)); higher = more functional
# Conditions: with PhoP (E. coli)
row,Variant,enrichment ratio
1,FLYS,≤ 0.25
2,MGLC,19.1
3,EQFD,≤ 0.25
4,KNAR,≤ 0.25
5,STCI,12.3
6,HDRT,≤ 0.25
7,ASIG,12
8,NHGF,≤ 0.25
9,FGYA,≤ 0.25
10,PALR,≤ 0.25
11,FKGP,≤ 0.25
12,GDHA,≤ 0.25
13,FVAY,≤ 0.25
14,NSDA,≤ 0.25
15,SQNM,1.65
16,ITEF,≤ 0.25
17,KMHH,≤ 0.25
18,YKRF,≤ 0.25
19,EHKK,≤ 0.25
20,VHGM,≤ 0.25
21,NREG,≤ 0.25
22,KAIL,≤ 0.25
23,EMWF,≤ 0.25
24,MFRN,≤ 0.25

row,Variant,enrichment ratio
1,IWDY,≤ 0.25
2,EVQM,≤ 0.25
3,IILG,0.308
4,QYSR,≤ 0.25
5,IDYN,≤ 0.25
6,AWVY,≤ 0.25
7,NDEF,≤ 0.25
8,VHNT,≤ 0.25
9,WFNM,≤ 0.25
10,QRLH,≤ 0.25
11,YTEA,≤ 0.25
12,RHWC,≤ 0.25
13,AMIH,≤ 0.25
14,FGMR,≤ 0.25
15,YKRQ,≤ 0.25
16,SWTW,≤ 0.25
17,KHTN,≤ 0.25
18,HRNK,≤ 0.25
19,RLAE,≤ 0.25
20,TMCP,≤ 0.25
21,GWLN,≤ 0.25
22,DAFF,≤ 0.25
23,KQCY,≤ 0.25
24,SRHL,≤ 0.25

row,Variant,enrichment ratio
1,ASAD,≤ 0.25
2,ECHL,≤ 0.25
3,GTGH,≤ 0.25
4,RTFY,≤ 0.25
5,DRKR,≤ 0.25
6,FGSV,≤ 0.25
7,RKDH,≤ 0.25
8,VPVD,≤ 0.25
9,GWIW,≤ 0.25
10,NKDY,≤ 0.25
11,AWKL,0.919
12,KKRH,≤ 0.25
13,YWEK,≤ 0.25
14,EMYV,≤ 0.25
15,HSPL,≤ 0.25
16,LWKH,≤ 0.25
17,PRGS,≤ 0.25
18,FDND,≤ 0.25
19,QMHD,≤ 0.25
20,QYYD,≤ 0.25
21,DKDI,≤ 0.25
22,NGSD,≤ 0.25
23,PKVP,≤ 0.25
24,EAGN,≤ 0.25

row,Variant,enrichment ratio
1,MFPG,≤ 0.25
2,DPCG,≤ 0.25
3,VGGP,≤ 0.25
4,FDTL,≤ 0.25
5,AIIC,10.2
6,HEYW,≤ 0.25
7,ARRT,≤ 0.25
8,IWEH,≤ 0.25
9,GEAQ,2.5
10,YTPN,≤ 0.25
11,SARY,≤ 0.25
12,IKQF,≤ 0.25
13,SSGT,6.7
14,IYMP,≤ 0.25
15,DKYS,≤ 0.25
16,SKTC,11.1
17,KCCN,≤ 0.25
18,MDWT,≤ 0.25
19,FKPK,≤ 0.25
20,ESCH,≤ 0.25
21,TVDG,≤ 0.25
22,LGQM,≤ 0.25
23,RFVI,0.664
24,EHGC,≤ 0.25

row,Variant,enrichment ratio
1,QYML,≤ 0.25
2,NHRM,≤ 0.25
3,TGLI,12.2
4,MWTP,≤ 0.25
5,MEYQ,≤ 0.25
6,FGIK,≤ 0.25
7,MGVG,2.02
8,YYYI,≤ 0.25
9,NMTA,≤ 0.25
10,TNSW,2.27
11,DLNL,≤ 0.25
12,DGHV,≤ 0.25
13,YEEH,≤ 0.25
14,HIFY,≤ 0.25
15,EAFG,≤ 0.25
16,TWWD,≤ 0.25
17,TNNS,9.64
18,WWHL,≤ 0.25
19,QGIG,≤ 0.25
20,QYTR,≤ 0.25
21,YVLS,≤ 0.25
22,PGSI,≤ 0.25
23,FAGE,≤ 0.25
24,DPYH,≤ 0.25

row,Variant,enrichment ratio
1,AFNG,≤ 0.25
2,PFRI,≤ 0.25
3,DTQD,≤ 0.25
4,MHDW,≤ 0.25
5,NPAM,≤ 0.25
6,SYIK,≤ 0.25
7,KMEI,≤ 0.25
8,SYVD,≤ 0.25
9,KPMT,≤ 0.25
10,QFWC,17.1
11,GTTH,≤ 0.25
12,IRNC,≤ 0.25
13,TCEQ,≤ 0.25
14,DEIE,≤ 0.25
15,ETDN,≤ 0.25
16,DFSE,≤ 0.25
17,AALM,14.8
18,ELNI,≤ 0.25
19,RISV,≤ 0.25
20,RPTY,≤ 0.25
21,KCQY,≤ 0.25
22,IEAM,≤ 0.25
23,SLSY,3.63
24,PNYP,≤ 0.25

row,Variant,enrichment ratio
1,SGKD,≤ 0.25
2,GEWY,≤ 0.25
3,NYAW,≤ 0.25
4,GHIW,≤ 0.25
5,TEPG,≤ 0.25
6,MQHQ,≤ 0.25
7,ADEV,≤ 0.25
8,ANKK,≤ 0.25
9,KVKT,≤ 0.25
10,SSTV,10.5
11,KEVT,≤ 0.25
12,MGDM,≤ 0.25
13,RRWY,≤ 0.25
14,PSET,≤ 0.25
15,REDS,≤ 0.25
16,YEPS,≤ 0.25
17,ENHI,≤ 0.25
18,QLHR,≤ 0.25
19,EQGN,≤ 0.25
20,KYFR,≤ 0.25
21,VAGV,≤ 0.25
22,QAMG,≤ 0.25
23,KLED,≤ 0.25
24,VFGC,≤ 0.25

row,Variant,enrichment ratio
1,MNTT,≤ 0.25
2,VRMG,≤ 0.25
3,FIRT,≤ 0.25
4,VADL,≤ 0.25
5,SGWE,≤ 0.25
6,HGPT,≤ 0.25
7,MVPS,≤ 0.25
8,DGVI,≤ 0.25
9,SHFR,≤ 0.25
10,VDHD,≤ 0.25
11,CHNH,≤ 0.25
12,FWQL,≤ 0.25
13,PQWD,≤ 0.25
14,KKPN,≤ 0.25
15,HAKE,≤ 0.25
16,KDRM,≤ 0.25
17,HRCP,≤ 0.25
18,PRDC,≤ 0.25
19,DQWW,≤ 0.25
20,MRSQ,≤ 0.25
21,FRIH,≤ 0.25
22,TIRR,≤ 0.25
23,KVDM,≤ 0.25
24,LHGV,≤ 0.25

row,Variant,enrichment ratio
1,PTIF,≤ 0.25
2,LFLE,≤ 0.25
3,GWHG,≤ 0.25
4,CFVF,≤ 0.25
5,THVR,≤ 0.25
6,QFTK,≤ 0.25
7,PNFH,≤ 0.25
8,WPVM,≤ 0.25
9,SFSG,1.81
10,VFWC,≤ 0.25
11,MMEW,≤ 0.25
12,DWYH,≤ 0.25
13,PTTN,≤ 0.25
14,TYGV,≤ 0.25
15,CDPS,≤ 0.25
16,RQCT,≤ 0.25
17,RDRV,≤ 0.25
18,LDNV,≤ 0.25
19,WHMS,≤ 0.25
20,GFCK,≤ 0.25
21,EGAN,≤ 0.25
22,SYGI,≤ 0.25
23,IHMH,≤ 0.25
24,WDTR,≤ 0.25

row,Variant,enrichment ratio
1,MGSG,1.14
2,MLRH,≤ 0.25
3,TMRS,≤ 0.25
4,FLYD,≤ 0.25
5,IMRA,≤ 0.25
6,KKFC,≤ 0.25
7,QEAC,16
8,HTLR,≤ 0.25
9,GWTN,≤ 0.25
10,HLKL,≤ 0.25
11,IIMK,≤ 0.25
12,TIPA,≤ 0.25
13,LIWQ,≤ 0.25
14,YNHE,≤ 0.25
15,VQVQ,≤ 0.25
16,QFNV,≤ 0.25
17,LHTR,≤ 0.25
18,THEN,≤ 0.25
19,QPCS,≤ 0.25
20,KGPS,≤ 0.25
21,LLHW,≤ 0.25
22,AERK,≤ 0.25
23,NKDA,≤ 0.25
24,FQNT,≤ 0.25

row,Variant,enrichment ratio
1,SDMF,≤ 0.25
2,KLRE,≤ 0.25
3,TGQT,6.64
4,KYMF,≤ 0.25
5,YMAG,≤ 0.25
6,NNRG,≤ 0.25
7,GWLF,≤ 0.25
8,SYTA,0.351
9,ADCN,11.5
10,RERH,≤ 0.25
11,RRCY,≤ 0.25
12,DSDH,≤ 0.25
13,TIAE,≤ 0.25
14,PDRP,≤ 0.25
15,QELE,≤ 0.25
16,NQNW,≤ 0.25
17,EYKI,≤ 0.25
18,NEKT,≤ 0.25
19,VKQH,≤ 0.25
20,DGMC,≤ 0.25
21,SHTF,≤ 0.25
22,EHGW,≤ 0.25
23,HRNM,≤ 0.25
24,ELLA,≤ 0.25

row,Variant,enrichment ratio
1,QAGV,6.5
2,RQAE,≤ 0.25
3,YYKS,≤ 0.25
4,VPLS,≤ 0.25
5,YCAY,≤ 0.25
6,ATFE,≤ 0.25
7,DGLN,≤ 0.25
8,PLWG,≤ 0.25
9,PSEH,≤ 0.25
10,PPYR,≤ 0.25
11,YAMM,3.27
12,LAVS,≤ 0.25
13,SLHD,≤ 0.25
14,EIQA,≤ 0.25
15,HGID,≤ 0.25
16,DHMG,≤ 0.25
17,PCLW,≤ 0.25
18,AGLH,11
19,RYKD,≤ 0.25
20,DSEG,≤ 0.25
21,FRFA,≤ 0.25
22,EQYH,≤ 0.25
23,WPIH,≤ 0.25
24,VDCR,≤ 0.25

row,Variant,enrichment ratio
1,INHK,≤ 0.25
2,RMWV,≤ 0.25
3,YSNS,≤ 0.25
4,SCYC,0.29
5,KHCA,≤ 0.25
6,QLIQ,≤ 0.25
7,VAQL,≤ 0.25
8,ASAY,4.58
9,VRPC,≤ 0.25
10,VDLW,≤ 0.25
11,NIVN,≤ 0.25
12,ENCP,≤ 0.25
13,LIGA,≤ 0.25
14,HSAM,5.5
15,WHFG,≤ 0.25
16,WMFQ,≤ 0.25
17,GDAF,≤ 0.25
18,AFMI,≤ 0.25
